ChEMBL document CHEMBL1201862, “PubChem BioAssay data set” (2004)

What follows are compounds tested on NCI-H322M (assay: growth of human tumour cells (NCI), 48 h).
With `Cc1ccc(Cl)cc1/N=N/C(=O)NNc1cc(Cl)ccc1C` the GI50 was inactive: 28.3 µM. In the case of `Cc1ccc(C(=O)N2CCCCC2)cc1/N=N/N(C)C`, the GI50 is reported as inactive: > 100 µM. With `C/C(C[n+]1ccccc1)=N\N=C(N)N` the GI50 was inactive: > 100 µM. For `CCCCCCc1ccc(C(=O)NO)cc1`, the GI50 was inactive: 30.6 µM. With `CC(NC(NC(C)C12CC3CC(CC(C3)C1)C2)=C(C(Cl)=C(Cl)Cl)[N+](=O)[O-])C12CC3CC(CC(C3)C1)C2` (stereo unspecified) the GI50 was inactive: > 83.4 µM. With `O1C2C1C1OC1C1OC1C1OC21` (stereo unspecified) the GI50 was inactive: > 100 µM. In the case of `CC(C)(C)c1nc2c(o1)/C(=N\c1ccccc1)c1ccccc1C2=O`, the GI50 is reported as inactive: 17.1 µM. For `O=C1CC(C(COCc2ccccc2)OCc2ccccc2)CC(=O)N1` (stereo unspecified), the GI50 was inactive: > 100 µM. With `CCOC(=O)Cn1c(=O)[nH]c(=O)c2[nH]cnc21` the GI50 was inactive: > 100 µM. In the case of `COc1cc(C(=O)Nc2cc(C(N)=O)cc(OC)c2OC)cc(NC(=O)/C=C/c2ccccc2)c1OC`, the GI50 is reported as inactive: 45.1 µM. With `COC1(C)C(=O)N2C1N(C(=O)OCc1ccccc1)CC2(C)C` (stereo unspecified) the GI50 was inactive: > 100 µM. `O=C(Nc1ccc2nc(O)n[n+]([O-])c2c1)C(F)(F)F` was tested, and the GI50 was inactive: > 100 µM. For `Nc1ccc2c(c1)S(=O)(=O)c1cc(N)ccc1-2`, the GI50 was inactive: > 100 µM. For `O=C(O)c1cccc(F)c1C(=O)c1ccc2ccccc2c1`, the GI50 was inactive: > 100 µM. With `COc1ccc(-c2ccc(CC(=O)O)cc2)cc1OC` the GI50 was inactive: > 100 µM. `CN1CCN(C(=S)N(C(=O)c2ccc(Cl)cc2)C2CCCCC2)CC1` was tested, and the GI50 was inactive: > 100 µM. In the case of `CCCCNC(=S)Nc1nc(C(=O)NNS(=O)(=O)c2ccccc2)cs1`, the GI50 is reported as inactive: 31.7 µM. With `CCOC(=O)N/N=C(/N)c1cccc([N+](=O)[O-])c1` the GI50 was inactive: > 100 µM. `C/C=C(\C)C(=O)OC1C2C(C)=CC(=O)C(O)C2(C)C2C3(O)OCC24C1OC(=O)C(OC(C)=O)C4C(C)C3O` (stereo unspecified) was tested, and the GI50 was active: 0.107 µM. In the case of `O=C(O)CC(O)(c1ccccc1C(=O)O)c1cccc2ccccc12` (stereo unspecified), the GI50 is reported as inactive: > 100 µM. With `CC1(C)C(=O)/C=C\C(=O)C(C)(C)C2=CC=C(O2)C(C)(C)C(=O)/C=C\C(=O)C(C)(C)C2=CC=C1O2` the GI50 was inactive: > 100 µM. In the case of `C[N+](C)(C)CC(=O)N/N=C(\C(=O)NC1=C(Cl)C(=O)c2ccccc2C1=O)C(C#N)c1nc(-c2ccc([N+](=O)[O-])cc2)cs1` (stereo unspecified), the GI50 is reported as inactive: 10.7 µM. For `C=C1C(C(O)C[C@H](C)C2O[C@@]3(CCCCO3)CCC2C)O[C@@H]2CCC3(CCC(/C=C/[C@@H](C)C4CC(C)=CC5(O4)O[C@H](C[C@](C)(O)C(=O)O)CCC5O)O3)OC2[C@@H]1O` (stereo partly specified), the GI50 was active: 0.00459 µM. `OC[C@H]1C[C@@H]2Cc3ccccc3N2N1` was tested, and the GI50 was inactive: > 100 µM. In the case of `C#CCOCn1cnc2ncnc(Cl)c21`, the GI50 is reported as inactive: > 100 µM. For `CC(=O)c1c2c(cc3c1CC1(Cc4cc5c(cc4C1)C(=O)CCC5)C3)CCCC2` (stereo unspecified), the GI50 was inactive: 30 µM. For `O=C1c2ccccc2C(=O)c2c(NC(=O)C3CC3)ccc(NC(=O)C3CC3)c21`, the GI50 was inactive: > 100 µM. In the case of `C[n+]1c2ccccc2c(/C=N\NS(=O)(=O)c2ccc(O)c(C(=O)O)c2)c2ccccc21`, the GI50 is reported as inactive: 41.1 µM. In the case of `CCOC(=O)C1=C(c2ccccc2)N(C(C)=O)Cc2ccccc21`, the GI50 is reported as inactive: 21.5 µM. For `CCN(CC)c1ccc(/N=N\c2ccc(-c3nc4ccc[n+](C)c4s3)cc2)cc1`, the GI50 was inactive: 12.6 µM. For `COc1ccc(CCCNC(=O)c2cc(OC)c(OC)cc2CCO)cc1OC`, the GI50 was inactive: > 100 µM. `C=CC1=C(C)c2cc3[nH]c(c4c5nc(cc6[nH]c(cc1n2)c(C)c6CC)C(C)=C5C(=O)[C@@H]4C(=O)OC)[C@@H](CCC(=O)O)[C@@H]3C` was tested, and the GI50 was inactive: 22.8 µM. `N#CC(c1ccccc1)N(CCOCCOCCN(C(=O)c1ccccc1)C(C#N)c1ccccc1)C(=O)c1ccccc1` (stereo unspecified) was tested, and the GI50 was inactive: > 100 µM. With `Cc1c(Cc2ccccc2)n(COCCCO)c(=O)[nH]c1=O` the GI50 was inactive: > 100 µM. `CC(C)=CCC[C@@H](C)C1=C(O)C(=O)C(C)=C(N[C@H](C)c2ccccc2)C1=O` was tested, and the GI50 was inactive: 5.09 µM. With `COc1ccc2nc3cc(Cl)ccc3c(Nc3ccccc3-c3ccccc3Nc3c4ccc(Cl)cc4nc4ccc(OC)cc34)c2c1` the GI50 was inactive: 38.9 µM. `CC1=C[C@]2(O)C(=O)[C@H](C)C[C@H]3[C@@H](CC[C@@](C)(O)/C=C\2C1=O)C3(C)C` was tested, and the GI50 was inactive: 45.3 µM. With `CCC(/C=C/c1ccccc1)=N\N=C(\C=C\c1ccccc1)CC` the GI50 was inactive: > 100 µM. With `OCCO[P+]1(OCCO)n2c3ccc2C(c2ccccc2)=C2C=CC(=N2)C(c2ccccc2)=c2ccc(n21)=C(c1ccccc1)C1=NC(=C3c2ccccc2)C=C1` the GI50 was active: 0.14 µM. In the case of `Cc1ccc(-n2nnc(C(N)=O)c2O)cc1`, the GI50 is reported as inactive: > 100 µM. With `CCOC(=O)[C@@]12C[C@](/C=C/OC)(O[Si](C)(C)C)[C@@]13c1cc(OC)c(OC)cc1CCN3C(=O)C2O` (stereo partly specified) the GI50 was inactive: > 100 µM. For `C=C1C(=O)C23C(O)CC4C(C)(C)CCC(O)C4(C)C2CC(OC(C)=O)C1[C@H]3O` (stereo partly specified), the GI50 was inactive: 11.1 µM. For `O=c1c(-c2ccccc2)nnc2n(Cc3ccccc3)c3ccccc3n12`, the GI50 was inactive: > 100 µM. For `Cc1c(C(=O)/C=C/c2ccc(Cl)cc2)[n+]([O-])c2ccccc2[n+]1[O-]`, the GI50 was inactive: 13.8 µM. In the case of `NC(CP(=O)(O)O)C(=O)O` (stereo unspecified), the GI50 is reported as inactive: > 100 µM. With `Cn1ccc(C(=O)NCCOCCNC(=O)c2ccn(C)c(=O)c2O)c(O)c1=O` the GI50 was inactive: > 100 µM.

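96-well plates; 48 h exposure; 5 concentrations. Endpoints by linear interpolation between flanking doses. Not reached: highest tested concentration assigned. GI50: concentration for 50% inhibition of growth.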 Active and inactive are the calls of the source. No stated cut-off is given here; in the data, active = GI50 up to about 1.1 µM and inactive = higher.
